# Results published in PMC4336329 (PLoS ONE, 2015).
# Screen size: about 310,000 compounds; about 14,000 (4.5%) showed an effect of 50% or more. The effect is printed as a negative number. Some of the results follow.
# Target: human ether-à-go-go-related gene (hERG) potassium channel (human, UniProt Q12809)
# Assay: primary screen, population patch clamp on CHO cells stably expressing hERG
# 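Also: peak tail current of the secondary pulse compared with the same well before compound.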
# Chain of human ether-à-go-go-related gene (hERG) potassium channel (Q12809 whole entry, looked up): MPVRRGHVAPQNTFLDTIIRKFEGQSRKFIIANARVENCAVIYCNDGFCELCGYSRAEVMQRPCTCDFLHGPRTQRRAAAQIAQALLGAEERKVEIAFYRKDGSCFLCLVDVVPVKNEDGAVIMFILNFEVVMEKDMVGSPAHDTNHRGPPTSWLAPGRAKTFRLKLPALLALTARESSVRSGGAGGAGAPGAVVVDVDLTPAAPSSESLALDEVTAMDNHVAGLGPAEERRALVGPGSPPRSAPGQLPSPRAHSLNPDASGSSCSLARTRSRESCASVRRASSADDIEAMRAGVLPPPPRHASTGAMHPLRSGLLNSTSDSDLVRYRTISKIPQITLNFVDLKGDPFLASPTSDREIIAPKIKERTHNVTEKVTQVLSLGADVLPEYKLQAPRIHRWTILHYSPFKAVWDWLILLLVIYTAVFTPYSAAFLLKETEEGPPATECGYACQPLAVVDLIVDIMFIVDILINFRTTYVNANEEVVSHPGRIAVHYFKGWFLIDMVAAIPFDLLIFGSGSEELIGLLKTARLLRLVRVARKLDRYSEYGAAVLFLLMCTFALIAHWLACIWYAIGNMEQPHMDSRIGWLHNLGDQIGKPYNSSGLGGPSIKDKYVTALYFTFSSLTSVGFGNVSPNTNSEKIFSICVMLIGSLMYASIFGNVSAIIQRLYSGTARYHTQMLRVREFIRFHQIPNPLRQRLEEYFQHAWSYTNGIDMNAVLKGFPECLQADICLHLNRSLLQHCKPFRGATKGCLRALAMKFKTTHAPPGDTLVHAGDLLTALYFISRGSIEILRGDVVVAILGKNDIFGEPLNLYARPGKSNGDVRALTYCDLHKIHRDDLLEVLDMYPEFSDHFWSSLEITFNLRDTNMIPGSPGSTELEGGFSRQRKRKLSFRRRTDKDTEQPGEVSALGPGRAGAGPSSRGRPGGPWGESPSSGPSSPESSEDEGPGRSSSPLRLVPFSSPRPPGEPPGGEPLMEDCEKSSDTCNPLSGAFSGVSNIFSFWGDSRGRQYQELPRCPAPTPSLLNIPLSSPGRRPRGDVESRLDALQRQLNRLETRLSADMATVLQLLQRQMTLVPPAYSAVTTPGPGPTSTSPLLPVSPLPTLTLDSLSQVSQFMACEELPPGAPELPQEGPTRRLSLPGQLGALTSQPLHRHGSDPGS
row,Compound,"hERG current change (%, negative = inhibition) at 10uM [%]"
1,CN(C)c1ccc(C=NC(CO)C(O)c2ccc([N+](=O)[O-])cc2)cc1 (centres unmarked),-1.65
2,N/C(CC(=O)Nc1ccc(F)cc1F)=N\OC(=O)c1cccs1,-9.37
3,O=C1Cc2cc(S(=O)(=O)Nc3ccc(F)cc3Cl)ccc2N1,-6.75
4,COc1ccc(C(=O)Nc2ccc3oc(-c4cccc(Cl)c4)cc(=O)c3c2O)cc1,4.4
5,COc1cc(OC)cc(-c2c(-c3ccc(F)cc3)c3cc(-c4ccc5cc[nH]c5c4)ccc3n2C)c1,14.2
6,CC(=O)Nc1ccc(NC(=O)c2oc3cc(C)c(C)cc3c2C)cc1,7.5
7,O=C(O)c1ccccc1C(=O)NCC(O)COCC1CC=CCC1 (centres unmarked),-33.5
8,COC(=O)[C@@]1(Cc2ccc(F)cc2)[C@H]2c3cc(C(=O)N(C)C)n(C[C@H](O)CO)c3C[C@H]2CN1C(=O)c1ccccc1,9.02
9,COCc1c(Br)c(C)nc2sc3c(=O)[nH]nnc3c12,10.3
10,Cc1ccc(S(=O)(=O)N2CC=C(C(=O)NC3CCCC3)CC2)cc1,-15.3
11,CC1(C)CC(CC(=O)Nc2ccccc2[N+](=O)[O-])C(=O)O1 (centres unmarked),-1.77
12,S=c1nc2ccccc2c2nc(-c3ccccc3Br)[nH]n12,15.6
13,Cc1cc(N2CCN(C3CCCCC3)CC2)nc2cccc(O)c12,-49.4
14,COc1cc(-c2nnc3sc(C4CCCCC4)nn23)cc(OC)c1OC,-43.7
15,O=C(Nc1ccc2c(c1)OCO2)c1ccc(Cl)nc1,5.7
16,COc1ccc(N=C2S/C(=C\c3ccc(C)s3)C(=O)N2CC(C)C)cc1,-3.46
17,O=C(Nc1ccc2c(c1)OCO2)c1noc2c1CCCCC2,-4.64
18,Cc1ccc(OCCCCN2CCCCC2)c(C)c1,-24.6
19,CCCCN1C(=O)C(=O)N(CC(=O)Nc2sc(CC)cc2C(=O)OCC)C1=O,-10
20,CC(CNC(=O)CCc1ccccc1)NC(=O)CCc1ccccc1 (centres unmarked),13.7
21,CCc1nnc(SCC(=O)Nc2ccc(N3CCN(S(C)(=O)=O)CC3)cc2)o1,0.927
22,CCOC(=O)c1c(CSC(=N)N)n(-c2ccccc2)c2cc(Br)c(OC(C)=O)cc12,-77.9

row,Compound,"hERG current change (%, negative = inhibition) at 10uM [%]"
1,COc1ccc(OCC(O)Cn2c(N3CCCCC3)nc3c2c(=O)[nH]c(=O)n3C)cc1 (centres unmarked),-5.73
2,CN(C)C(CNC(=O)c1ccc(NS(=O)(=O)c2ccc(F)cc2)cc1)c1ccco1 (centres unmarked),-13.7
3,Cc1ccc(-n2nnnc2CNC(=O)c2ccc([N+](=O)[O-])o2)cc1C,-5.83
4,CCNC(=S)N1CCN(c2ccc([N+](=O)[O-])cc2)CC1,-64.5
5,CC(C)CN(C(=O)COC(=O)c1ccc(C#N)cc1)C1CCS(=O)(=O)C1 (centres unmarked),-41.7
6,COc1ccc(-c2nn(CCC#N)cc2C(=O)Nc2cccc(C(=O)O)c2)cc1OC,20.9
7,CC(Nc1[nH]c(=O)n(C)c(=O)c1N=O)c1ccccc1 (centres unmarked),24.9
8,COc1ccc(-n2c(=S)[nH]c3cc(C(=O)Nc4ccc(F)cc4)ccc3c2=O)c(OC)c1,11.7
9,O=C(OCc1ccccc1)Oc1cncc(C(=O)O)c1,-1.45
10,O=C(Nc1ccc(C2=NCCN2)cc1)c1ccc(Cl)c(C(=O)Nc2ccc(C3=NCCN3)cc2)c1,9.58
11,CC1(C)CC(=O)C(C=NCCN2CCNCC2)=C(O)C1,13.1
12,Cc1ccccc1Oc1cc(NC(=O)Cn2cnc([N+](=O)[O-])c2)cc([N+](=O)[O-])c1,9.59
13,O=S(=O)(c1cc(Br)c(Cl)s1)N1CCCC1,2.34
14,CCc1noc(C)c1C(=O)N1CCN(S(=O)(=O)c2c(C)cc(C)cc2C)CC1,-21.3
15,CCn1c(SCC(=O)OC)nnc1-c1ccccc1,-14.7
16,Cc1cc(C)cc(NC(=O)N2CCN(S(C)(=O)=O)CC2)c1,26.5
17,O=c1[nH]c(C2CCN(S(=O)(=O)c3cccc(C(F)(F)F)c3)CC2)nc2c1nnn2Cc1cccc(F)c1,8.4
18,CCCCC(C(=O)O)C(C)CC(=O)Nc1nncs1 (centres unmarked),13.1
19,COc1ccccc1C(=O)N/N=C(\C)CC(=O)Nc1ccccn1,16
20,Cc1cc2ncc(C(=O)Nc3ccccc3)c(C)n2n1,-5
21,Cc1nc2c(-c3ccc(F)cc3)c(C)nn2c(C)c1CCC(=O)NCCN1CCOCC1,-24.3
22,CC(C)CNC(=O)c1cc(-c2ccco2)on1,5.6

row,Compound,"hERG current change (%, negative = inhibition) at 10uM [%]"
1,CC(C)C[C@@H]1NC(=O)N(CCN2CCOCC2)C1=O,-9.72
2,CCOc1ncccc1C(=O)OCC(=O)c1cc(OC)c(OC)c(OC)c1,-1.76
3,CCN(CC(=O)Nc1ccc(NC(C)=O)cc1)C(=O)CCCOc1ccc(C(C)(C)C)cc1,15.8
4,O=C(c1cc2nc(-c3ccccc3)cc(-c3ccccc3)n2n1)N1CCC2(CC1)OCCO2,-49.4
5,CC1CCN(C(=O)Cn2c(=O)n(Cc3ccc4c(c3)OCO4)c(=O)c3ccccc32)CC1,-18.5
6,Cc1nn(Cc2ccc(Cl)cc2)c(C)c1NC(=O)Cn1nc([N+](=O)[O-])c(Cl)c1C,2.42
7,Cn1c(Oc2ccccc2)c(C=O)c2ccccc21,-9.62
8,c1ccc(C2CC(c3ccccc3)n3c(nc4ccccc43)N2)cc1 (centres unmarked),3.56
9,COc1ccc(-c2oc(/N=C/N3CCCC3)c(C#N)c2-c2ccc(OC)cc2)cc1,-18.5
10,O=C(Nc1ccccc1)c1ccc2ccccc2n1,15.2
11,Cc1ccc(C)n1-c1nnc(N2CCC(C(=O)NCCCN3CCN(C)CC3)CC2)s1,-0.772
12,COc1ccc(/C=N/OCC(=O)N2CC3(C)CC2CC(C)(C)C3)cc1OC (centres unmarked),-3.72
13,CC(C)/C=C1\CCc2c([nH]c3ccccc23)C1=O,9.91
14,COc1ccc(-n2cnnc2SCc2ncc(-c3ccccc3)o2)cc1,-49.3
15,CCOP(=O)(OCC)C(CC)N1CCOCC1 (centres unmarked),7.31
16,COCCCn1c(SCC(=O)Nc2oc(C)c3c(C)n[nH]c(=O)c23)nc2sc3c(c2c1=O)CCC3,-49.7
17,O=C(NNc1ccc([N+](=O)[O-])cc1)C1CC2CCCC(C1)C2=O (centres unmarked),-11.3
18,Cc1[nH]n(-c2ccccc2)c(=O)c1N=Nc1ccccc1C(=O)N1CCOCC1,-32.6
19,CC(C)C(=O)Nc1cccc(-c2nc3ncccc3o2)c1,12.8
20,COc1ccc(C2=NN(C(N)=S)C(c3ccco3)C2)cc1 (centres unmarked),0.346
21,CCOC(=O)c1ccc(NC(=O)C2CCN(S(=O)(=O)c3ccccc3)CC2)cc1,-20.9
22,O=C(COC(=O)C1CC2C=CC1C2)Nc1cccc(S(=O)(=O)N2CCCCC2)c1 (centres unmarked),-47.8

row,Compound,"hERG current change (%, negative = inhibition) at 10uM [%]"
1,Cc1cc(C)cc(-n2c(C)cc(/C=C3\C(=O)NC(=O)N(C)C3=O)c2C)c1,-5.02
2,Cc1cccc(C(=O)N2CCCC(N3CCN(c4ccc(F)cc4)CC3)C2)n1 (centres unmarked),-48.4
3,O=C(Nc1ccc(O)c(-c2nc3ccccc3o2)c1)C1(c2ccccc2)CCCC1,19.5
4,CN(C(=O)c1ccc2c(c1)CCN2S(C)(=O)=O)c1ccccc1,5.75
5,CN(Cc1ccccc1)C(=O)c1nc2ccccn2c1CN1CCCC1c1nccs1 (centres unmarked),-35
6,O=C(COc1ccccc1Br)N1CCN(C(=O)c2ccco2)CC1,-31.3
7,CSc1nc(N2CCOCC2)cc(N2CCOCC2)n1,7.09
8,CCSC1=NCCN1C(=O)Cc1ccc(-c2ccccc2)cc1,6.93
9,O=C(Cc1ccccc1)Nc1cccnc1,2.86
10,COc1ccc2c(c1)c(C(O)CN1CCN(Cc3ccc4c(c3)OCO4)CC1)c(C)n2C (centres unmarked),-11
11,CCOc1ccc(C2C(C#N)=C(N)Oc3n[nH]c(C)c32)cc1OC(=O)C1CC1 (centres unmarked),13.2
12,Br.C=CCN1C(c2cccc(C(F)(F)F)c2)=CS/C1=C(/C#N)c1nnc(N2CCOCC2)n1-c1ccccc1,-46.3
13,Cc1csc(NC(=O)C2CCCC2)n1,12.7
14,CCN(CC)CCCNC(CC(=O)Nc1cccc([N+](=O)[O-])c1)C(=O)O (centres unmarked),3.23
15,CNS(=O)(=O)c1cccc(C(=O)OCc2cc(=O)oc3c(C)c(O)ccc23)c1,14.1
16,CCOC(=O)c1[nH]ncc1CN1CCCC(C(=O)c2ccc(SC)cc2)C1 (centres unmarked),-73
17,O=C(COc1ccccc1Cl)N1N=C(c2cccs2)CC1c1ccco1 (centres unmarked),-3.58
18,O=C(c1cccs1)N1CCN=C1SCc1cccnc1,-3.92
19,CCCCn1c(SCC(=O)Nc2cc(C(F)(F)F)cc(C(F)(F)F)c2)nnc1C(CC)N(C)C (centres unmarked),-23.3
20,COc1ccc(C(=O)N/N=C(/C)c2cccc(NC(=O)c3ccncc3)c2)cc1OC,8.48
